Holding throughout (assay): glycan array binding signal (z-score within array); higher = stronger binding
Settings in all cases: glycan notation: IUPAC condensed, linker removed

The target in assay [1] is Gal(b1-4)GlcNAc(b1-2)Man(a1-3)[Gal(b1-4)GlcNAc(b1-2)Man(a1-6)]Man(b1-4)GlcNAc(b1-4)[Fuc(a1-6)]GlcNAc. Summed up:
(§1)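 From the Consortium for Functional Glycomics database, 3228 arrays were curated, keeping only those whose protein sequence was available. Binding is given as a within-array Z-score averaged across arrays sharing a protein sequence and across linkers. Negative Z-scores can be read as non-binding.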

Assay [2] concerns the target Gal(b1-4)GlcNAc(b1-2)Man(a1-3)[Gal(b1-4)GlcNAc(b1-2)Man(a1-6)][Gal(b1-4)GlcNAc(b1-4)]Man(b1-4)GlcNAc(b1-4)[Fuc(a1-6)]GlcNAc. Put shortly:
as §1

The target in assay [3] is Gal(b1-4)GlcNAc(b1-2)Man(a1-3)[Gal(b1-4)GlcNAc(b1-2)Man(a1-6)][GlcNAc(b1-4)]Man(b1-4)GlcNAc(b1-4)[Fuc(a1-6)]GlcNAc. Summed up: as §1
The target of assay [4] is Gal(b1-4)GlcNAc(b1-2)Man(a1-3)[GlcNAc(b1-2)Man(a1-6)]Man(b1-4)GlcNAc(b1-4)GlcNAc. Put shortly:
as §1

In assay [5] the target is Gal(b1-4)GlcNAc(b1-2)Man(a1-3)[GlcNAc(b1-4)][Gal(b1-4)GlcNAc(b1-2)Man(a1-6)]Man(b1-4)GlcNAc(b1-4)GlcNAc. Put shortly: as §1
For assay [6], the target named is Gal(b1-4)GlcNAc(b1-2)Man(a1-3)[Man(a1-6)]Man(b1-4)GlcNAc(b1-4)GlcNAc. Put shortly:
as §1

For assay [7], the target named is Gal(b1-4)GlcNAc(b1-2)Man(a1-6)Man(b1-4)GlcNAc(b1-4)GlcNAc. Summed up: as §1
In assay [8] the target is Gal(b1-4)GlcNAc(b1-2)Man(a1-6)[GlcNAc(b1-2)Man(a1-3)]Man(b1-4)GlcNAc(b1-4)GlcNAc. Put shortly: as §1
Assay [9] addresses Gal(b1-4)GlcNAc(b1-2)Man(a1-6)[Man(a1-3)]Man(b1-4)GlcNAc(b1-4)GlcNAc. Summed up:
as §1

Assay [10] concerns the target Gal(b1-4)GlcNAc(b1-2)[Gal(b1-4)GlcNAc(b1-4)]Man(a1-3)[Gal(b1-4)GlcNAc(b1-2)Man(a1-6)]Man(b1-4)GlcNAc(b1-4)GlcNAc. Summed up: as §1
Assay [11] concerns the target Gal(b1-4)GlcNAc(b1-2)[Gal(b1-4)GlcNAc(b1-4)]Man(a1-3)[Gal(b1-4)GlcNAc(b1-2)[Gal(b1-4)GlcNAc(b1-6)]Man(a1-6)]Man(b1-4)GlcNAc(b1-4)GlcNAc. Put shortly:
as §1

Assay [12] addresses Gal(b1-4)GlcNAc(b1-2)[Gal(b1-4)GlcNAc(b1-4)]Man(a1-3)[GlcNAc(b1-4)][Gal(b1-4)GlcNAc(b1-2)Man(a1-6)]Man(b1-4)GlcNAc(b1-4)GlcNAc. Put shortly: as §1
Assay [13] addresses Gal(b1-4)GlcNAc(b1-2)[Gal(b1-4)GlcNAc(b1-4)]Man(a1-3)[GlcNAc(b1-4)][Gal(b1-4)GlcNAc(b1-2)[Gal(b1-4)GlcNAc(b1-6)]Man(a1-6)]Man(b1-4)GlcNAc(b1-4)GlcNAc. Summed up: as §1
In assay [14] the target is Gal(b1-4)GlcNAc(b1-2)[Gal(b1-4)GlcNAc(b1-6)]Man(a1-6)[Gal(b1-4)GlcNAc(b1-2)Man(a1-3)]Man(b1-4)GlcNAc(b1-4)GlcNAc. Summed up: as §1
Assay [15] addresses Gal(b1-4)GlcNAc(b1-2)[Gal(b1-4)GlcNAc(b1-6)]Man(a1-6)[Gal(b1-4)GlcNAc(b1-2)Man(a1-3)]Man(b1-4)GlcNAc(b1-4)[Fuc(a1-6)]GlcNAc. Put shortly:
as §1

Assay [16] has as its target Gal(b1-4)GlcNAc(b1-2)[Gal(b1-4)GlcNAc(b1-6)]Man(a1-6)[GlcNAc(b1-4)][Gal(b1-4)GlcNAc(b1-2)Man(a1-3)]Man(b1-4)GlcNAc(b1-4)GlcNAc. Summed up: as §1
For assay [17], the target named is Gal(b1-4)GlcNAc(b1-2)[Gal(b1-4)GlcNAc(b1-6)]Man(a1-6)[GlcNAc(b1-4)][Gal(b1-4)GlcNAc(b1-2)[Gal(b1-4)GlcNAc(b1-4)]Man(a1-3)]Man(b1-4)GlcNAc(b1-4)[Fuc(a1-6)]GlcNAc. Summed up: as §1
Assay [18] deals with Gal(b1-4)GlcNAc(b1-3)Gal(b1-3)GalNAc. Summed up:
as §1

In assay [19] the target is Gal(b1-4)GlcNAc(b1-3)Gal(b1-3)GlcNAc. Put shortly:
as §1

Some of the results follow.

B1: Na-CTL-1 (Necator americanus) (protein)
chain: MQRSFLLLLVVLAGAWAVNTTIPLKLMGGFTPMKYQCVGRVSDIWADVLFLIESSDMITKSGFRQVIAFITATTKKMTIGQDEKQTRVGFITYGEEAKLIYDLDHWRSTEKLSDLVQKIPYVKSSGTNIAAAIALANKVFNSPTHRPNVPKVMVIVANGLKKGSQNPIPVATAFKDFGGIIITIEYTQYDNIQVPILKKIASEGYNIRSNDEDFSVRTLTNMLLQANCFCPDHYVPFRVNNPEFGCFVTAKIPSMWRDAAEMCRAVEEGKLVKVENEEKAAFIMKLVGPKKEAWIGLRYYGNKFQWTDGTKLNADDFNLWPEDIKELNGPHCVSMYQDQKDKKYYWRAGKCLEDMRYVCEVQPCSASNYCSEPVFMYRQKHRALLPAPPPPPN
On to B1, for which the “glycan array binding signal (z-score)” value in [1] is -0.105; in assay [2], -0.149; in assay [3] it was -0.303; in [4] it was -0.27; in [5], 0.121; in [6], 0.253. The “glycan array binding signal (z-score)” value in [7] was -0.313; in assay [8], -0.602; in assay [9], 3.16; in assay [10], 0.445; in assay [11], 0.369; in assay [12], -0.503. Moreover, the “glycan array binding signal (z-score)” value was -0.558 in assay [13]; -0.505 in assay [14]; 0.921 in assay [15]; -0.418 in [16]; 0.131 in assay [17]; -0.697 in [18]. Further, the “glycan array binding signal (z-score)” value in [19] is -0.153.

For the origin of these results see the supplement of paper PMC8728848.
